This is one part of the list.

This assay addresses T1, OsWOX13 (Oryza sativa, UniProt Q5QMM3 1-267).
T1 sequence: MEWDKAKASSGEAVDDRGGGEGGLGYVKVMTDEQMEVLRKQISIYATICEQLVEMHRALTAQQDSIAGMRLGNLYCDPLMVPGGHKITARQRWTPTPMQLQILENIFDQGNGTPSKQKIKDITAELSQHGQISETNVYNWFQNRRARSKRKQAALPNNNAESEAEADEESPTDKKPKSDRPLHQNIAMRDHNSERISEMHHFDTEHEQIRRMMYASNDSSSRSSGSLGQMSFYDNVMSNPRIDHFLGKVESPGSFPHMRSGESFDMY
Nature of the assay: protein-binding microarray (RPBM); PBS, 2% BSA, 51.3 ng/ul salmon testes DNA, 50 uM zinc acetate, 200 nM TF, 25 C, 1 h; high values mean tight binding. The conditions noted are these: protein: recombinant; tags: N-terminal polyhistidine and DsRed monomer fusion (pET32a); label: CyDye5-dUTP incorporated in the synthesized complementary strand; 3' TTTTT single-stranded linker to array surface; dsDNA, one strand shown. The essentials:
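Binding signal is defined as the fluorescence intensity of each feature in arbitrary units, read on an Axon 4000B scanner. Transcription factors with N-terminal polyhistidine and DsRed fusions came from E. coli BL21-CodonPlus and were purified on Ni–NTA. They were incubated at 200 nM for 1 h at 25 °C on a custom Agilent array that had been made double-stranded with Cy5-dUTP, with 50 µM zinc acetate present, and the array was washed.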
On to “CGACAAACTGGACTGAGGGAAAATTGTACCTCACCGAGTCCGGAGTCACCTAGTGCAG”, for which the binding signal is 4360 fluorescence intensity (a.u.).
Under “GGCTCTAAATTGTTTATAGTAACGGAATTGCTATATATGTCGGAGTCACCTAGTGCAG” stands 7030 fluorescence intensity (a.u.); under “TTGTGATTATTTCTATACCTACCATAGGGAATTTTACAATCGGAGTCACCTAGTGCAG”, 24600 fluorescence intensity (a.u.); under “GTTTGTTTAGATTGGTACCATTTAAAATCATATTATTTTGCGGAGTCACCTAGTGCAG”, 20600 fluorescence intensity (a.u.).
Under “CTGAACCAAATTGATACTTGGACAGACCATCTTGGCCTCACGGAGTCACCTAGTGCAG” stands 13500 fluorescence intensity (a.u.).
The same measure for “ACTTTCTAATGCAATCAATCTGTCTGAAATCTGCCAAGTTCGGAGTCACCTAGTGCAG”: 7870 fluorescence intensity (a.u.).
As to “CTCAACCTAGATTGTTATATTTTCCCTCCAACCTAGATTGCGGAGTCACCTAGTGCAG”, the binding signal is 4090 fluorescence intensity (a.u.).
The same measure for “TTTGATTAGTTAAGGGACGCCGAATATCTGATTTTGTGGTCGGAGTCACCTAGTGCAG”: 44300 fluorescence intensity (a.u.); for “AGCCTAATTAATCCGCCATTAGCAAATATGGATTACTGTGCGGAGTCACCTAGTGCAG”: 22900 fluorescence intensity (a.u.); for “ATTAACTAGTATAAATTAGTTATTAGATAGACTATAGATGCGGAGTCACCTAGTGCAG”: 26700 fluorescence intensity (a.u.).
Consider “ATTTTAAGTGACGGGTAAATTAAATTTGATTTGTATTTGCCGGAGTCACCTAGTGCAG”, for which the binding signal is 33100 fluorescence intensity (a.u.).
The same measure for “CCATAATTATTGTGACATCTGTGACGATGCACAGCCAGTACGGAGTCACCTAGTGCAG”: 38000 fluorescence intensity (a.u.); for “CCATGATTAGTCTATGTGATGCTATAGTAAACATGTGCTACGGAGTCACCTAGTGCAG”: 29200 fluorescence intensity (a.u.).
The same measure for “CCGTCAATTATACTTATGTATAAAATCTTAACATCAAATTCGGAGTCACCTAGTGCAG”: 5360 fluorescence intensity (a.u.); for “TTGCTTTGTGTAATTAATTTAACAGATTTTGGGAGTATTACGGAGTCACCTAGTGCAG”: 12300 fluorescence intensity (a.u.).
The same measure for “ATACTATATTGCTTTTGATTATTGAGCTAGTGAGCAAACTCGGAGTCACCTAGTGCAG”: 5160 fluorescence intensity (a.u.).
As for “TACCCCTAATTTTACTCGATCCCCTCTGTAACCCCGAATTCGGAGTCACCTAGTGCAG”, the binding signal is 3540 fluorescence intensity (a.u.).
In the case of “ATAGATTTTCATTAATCTGGCCTCTATATCCACAAGGGTACGGAGTCACCTAGTGCAG”, the binding signal was 6830 fluorescence intensity (a.u.).
The same measure for “TCAGTAAATTCTCTTGACTGTTTATGATCACATATGTGATCGGAGTCACCTAGTGCAG”: 4780 fluorescence intensity (a.u.); for “GACATGATCGACCAATCAGAGTTAGAGCCGGCGTCGAGTTCGGAGTCACCTAGTGCAG”: 13900 fluorescence intensity (a.u.); for “CTCAACAATTGGCCATGTAAATTAGACATTTCATGATGTTCGGAGTCACCTAGTGCAG”: 3160 fluorescence intensity (a.u.).
The same measure for “AAACTGATTCTTTGATTATTGACGTCTCATAGACCTACGTCGGAGTCACCTAGTGCAG”: 31600 fluorescence intensity (a.u.); for “AATGATCTGATGGATGTTCTCTCACGTTCAAATCAGAGGCCGGAGTCACCTAGTGCAG”: 8430 fluorescence intensity (a.u.).
Under “TACGTACCAGTACTAATTAGCACTGTGCCACTGCTAGTATCGGAGTCACCTAGTGCAG” stands 4720 fluorescence intensity (a.u.); under “GTGATTGATGTTAATTAGAGCTTACTATTGGTAGTAGGTACGGAGTCACCTAGTGCAG”, 51900 fluorescence intensity (a.u.); under “GATTTTGATCCAATCAATCTAGTACTCCCTCCGTTTCTAACGGAGTCACCTAGTGCAG”, 8640 fluorescence intensity (a.u.).
On to “TGAAATTATTAGCAGGGTTTTAAATCTTCTGTTATAGCTGCGGAGTCACCTAGTGCAG”, for which the binding signal was 4040 fluorescence intensity (a.u.).
Under “TTGATTGGTATAATAATGCAGTCAACACAATAGCCAATCTCGGAGTCACCTAGTGCAG” stands 20400 fluorescence intensity (a.u.); under “GATGCTGATTGGGCTGGATGCTTAGATGATAGAAGGTCAACGGAGTCACCTAGTGCAG”, 23300 fluorescence intensity (a.u.); under “CTAATTTTATGGTTAATGGACACGATTTAATCTAGACTCTCGGAGTCACCTAGTGCAG”, 13800 fluorescence intensity (a.u.).
In the case of “TCACGCATAAAATATTAATTATATTTTATCATTTAACAATCGGAGTCACCTAGTGCAG”, the binding signal is 3250 fluorescence intensity (a.u.).
The same measure for “TGGTTTTAAATTATAATAATGCAGGTCAACTGATATAGTTCGGAGTCACCTAGTGCAG”: 4730 fluorescence intensity (a.u.).
Under “AAATACAATTAATACGGATTGAGTATTGTACTGTGCTAATCGGAGTCACCTAGTGCAG” stands 3330 fluorescence intensity (a.u.).
Turning to “CGTTAGCCAAAATCACTCCCCAATCAATCGAGGGAGTCATCGGAGTCACCTAGTGCAG”, the binding signal was 5120 fluorescence intensity (a.u.).
Under “TTCTTAAACAGAACATTCAAATTAAATACTCTATCCGTCCCGGAGTCACCTAGTGCAG” stands 4910 fluorescence intensity (a.u.).
As for “TATAATTGACATGCAATTATAATAACGTGGGTTAAATATACGGAGTCACCTAGTGCAG”, the binding signal was 33800 fluorescence intensity (a.u.).
Under “ATCTTCTAATTTGTGTCATTACCGTTACCAAAATTATAGTCGGAGTCACCTAGTGCAG” stands 27000 fluorescence intensity (a.u.).
The same measure for “AGGATTGGACAGAAGAATTGCGGTGGATGCATTGAGGCTCCGGAGTCACCTAGTGCAG”: 4470 fluorescence intensity (a.u.).
The same measure for “GTTTTATTTTAACTGACGTTTTGGACAATAACACGGTCTACGGAGTCACCTAGTGCAG”: 3560 fluorescence intensity (a.u.); for “AAATAATTTCTATCCTGACGCGACTATAAATCGGACGTCCCGGAGTCACCTAGTGCAG”: 14200 fluorescence intensity (a.u.); for “TAACAAGTCACTCATCAATCCGAATGTTTTCCCGATGGGACGGAGTCACCTAGTGCAG”: 3320 fluorescence intensity (a.u.).
Turning to “TTTCATAATTAACTAGTACTAGTCTGTAACCTTGTATGTTCGGAGTCACCTAGTGCAG”, the binding signal was 15700 fluorescence intensity (a.u.).

The record behind these values is paper PMC7819943, “Rice protein-binding microarrays: a tool to detect cis-acting elements near promoter regions in rice”.
